Measurements reported in PMC4336329 (PLoS ONE, 2015).
Screen size: about 310,000 compounds; about 14,000 (4.5%) showed an effect of 50% or more. The effect is printed as a negative number. The list shows a part of the results.

biological target: human ether-à-go-go-related gene (hERG) potassium channel (human, UniProt Q12809); assay: primary screen, population patch clamp on CHO cells stably expressing hERG
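Further: peak tail current of the secondary pulse compared with the same well before compound.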

Chain of human ether-à-go-go-related gene (hERG) potassium channel (Q12809 whole entry, looked up): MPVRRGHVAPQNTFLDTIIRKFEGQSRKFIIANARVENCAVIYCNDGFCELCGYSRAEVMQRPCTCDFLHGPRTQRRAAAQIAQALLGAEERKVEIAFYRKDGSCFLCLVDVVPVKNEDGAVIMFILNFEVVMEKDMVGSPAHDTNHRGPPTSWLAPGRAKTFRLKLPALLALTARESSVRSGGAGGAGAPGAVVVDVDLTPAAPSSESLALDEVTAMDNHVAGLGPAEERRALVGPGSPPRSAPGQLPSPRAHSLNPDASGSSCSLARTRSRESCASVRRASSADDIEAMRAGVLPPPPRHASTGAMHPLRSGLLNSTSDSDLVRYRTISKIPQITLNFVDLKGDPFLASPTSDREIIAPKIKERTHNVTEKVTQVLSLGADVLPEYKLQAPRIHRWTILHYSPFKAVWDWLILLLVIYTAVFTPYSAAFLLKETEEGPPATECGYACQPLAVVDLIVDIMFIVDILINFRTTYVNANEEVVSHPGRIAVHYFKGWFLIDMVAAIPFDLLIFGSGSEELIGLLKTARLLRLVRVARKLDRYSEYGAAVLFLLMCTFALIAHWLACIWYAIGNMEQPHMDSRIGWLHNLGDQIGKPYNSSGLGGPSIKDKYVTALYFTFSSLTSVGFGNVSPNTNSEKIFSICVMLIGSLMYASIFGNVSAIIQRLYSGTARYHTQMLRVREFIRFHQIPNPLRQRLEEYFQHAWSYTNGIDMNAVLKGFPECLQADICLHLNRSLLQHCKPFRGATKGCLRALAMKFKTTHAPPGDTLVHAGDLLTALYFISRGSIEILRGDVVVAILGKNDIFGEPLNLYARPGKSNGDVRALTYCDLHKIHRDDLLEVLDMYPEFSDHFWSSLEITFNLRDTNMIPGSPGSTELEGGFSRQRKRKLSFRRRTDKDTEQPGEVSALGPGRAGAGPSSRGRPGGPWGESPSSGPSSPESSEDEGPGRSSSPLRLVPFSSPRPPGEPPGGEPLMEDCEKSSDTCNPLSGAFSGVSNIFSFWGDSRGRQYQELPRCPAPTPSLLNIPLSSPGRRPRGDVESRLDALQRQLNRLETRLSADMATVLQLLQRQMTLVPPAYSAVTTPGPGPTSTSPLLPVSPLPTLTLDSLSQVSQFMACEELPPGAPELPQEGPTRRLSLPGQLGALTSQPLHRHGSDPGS

SMILES | hERG current change (%, negative = inhibition) at 10uM [%]
CNC(=S)N/N=C(\C)c1ccc2c(c1)OCO2 | 19.8
COc1ccc(CCNC(=O)C2CCN(S(C)(=O)=O)CC2)cc1OC | 10.6
COc1cccc(C=Nc2cccc3c(=O)[nH][nH]c(=O)c23)c1O | 14.2
Cc1nc(-c2coc3c(CN(C)C)c(O)ccc3c2=O)cs1 | 21.9
CN(Cc1ccc(Cl)c(Cl)c1)C(=O)CN1C(=O)NC2(CCCC2)C1=O | -7.19
COc1ccc(CC(=O)Nc2ncc([N+](=O)[O-])s2)cc1OC | 25.5
CCN1CCN(C(=O)C2=CC(c3ccc(C)cc3)=NS(=O)(=O)N2C)CC1 | -4.11
CN1CCN(NS(=O)(=O)c2cccs2)CC1 | -5.96
Cc1ccccc1-n1nnnc1SC(C)C(=O)Nc1ccc(N2CCN(C)CC2)cc1 (centres unmarked) | -25.4
CCOC(=O)C1CCCN(S(=O)(=O)c2ccc(OC)c3ccccc23)C1 (centres unmarked) | -3.17
COc1ccc(-c2nnc3sc(-c4ccccn4)nn23)cc1 | -13.2
CC(=O)Nc1cccc(C(=O)NNC(=O)c2ccccc2-n2cccc2)c1 | 12.3
CCOc1ccccc1CNS(=O)(=O)c1ccc(-c2cnc(C3CC3)o2)cc1 | -18.7
Cc1ccc(C)c(NC(=S)N2CCCCCC2)c1 | 0.578
COc1cc(C2(c3ccc(O)c(OC)c3)C(=O)N(C)c3ccc(C)cc32)ccc1O | -19
COc1ccc(OC2C(=O)N(c3cc(C)ccc3C)C2c2ccc(OC)c(OC)c2)cc1 (centres unmarked) | 13.7
Cc1cc(C#N)c(C)n1-c1cc(C(F)(F)F)ccc1N1CCOCC1 | -21.6
NC(=NCCc1ccccc1)NS(=O)(=O)c1ccccc1 | 9.55
Cc1nnc(NC(=O)c2cccc(S(=O)(=O)N(C)c3cccc(Cl)c3)c2)s1 | -10.7
COc1ccc(OC)c(NC(=O)CCC(=O)Oc2ccc(C)cc2)c1 | 10.5
Cc1ccc(-n2nc3c(=O)n(CC(=O)NCCc4ccc(Cl)cc4)nc(C)c3c2C)cc1 | -10.2
Cc1cc(C)n(-c2nc3ccccc3c(=O)n2OCC(=O)N(C)C)n1 | 7.66

SMILES | hERG current change (%, negative = inhibition) at 10uM [%]
CCn1c(=O)c([N+](=O)[O-])c(NCc2ccc3c(c2)OCO3)c2ccccc21 | -3.96
COc1ccc(/C(C)=N/NC(=O)c2ccc(CSc3nncn3C)cc2)cc1 | -6.17
CC(C)CNC(=O)C(=O)NCc1ccccc1 | 5.82
CCOC(=O)C/C(C)=N/NC(=O)CNc1cccc(Cl)c1C | -2.85
Cc1cccc(OCC(=O)Nc2ccc(S(=O)(=O)N3CCCC3)cc2)c1 | -14.4
CC(=O)Nc1ccccc1C(=O)N1CCc2ccccc21 | 11.3
N#CCCN1CCN(S(=O)(=O)c2ccc(S(=O)(=O)N3CCOCC3)cc2)CC1 | 0.386
O=C(CSc1nnc(-c2ccccc2)n1Cc1ccccc1)NC1CC1 | -49.4
Cc1ccc([N+](=O)[O-])cc1-c1ccc2cccc(C)c2n1 | 0.254
Cc1ccc(S(=O)(=O)N2CCC(C(=O)Nc3ccc(S(=O)(=O)N4CCCC4)cc3)CC2)cc1C | -4.77
CC(C)(C)NC(=O)/C(=C\c1ccco1)NC(=O)c1cccs1 | -9.06
COc1ccc(NC(=O)C2CSC(C)(C)N2C=O)cc1 (centres unmarked) | 4.83
Cc1ccc(CN2CCCC(C(=O)c3sccc3C)C2)o1 (centres unmarked) | -11
COc1ccc(CN2CCNC(=O)C2CC(=O)N2CCCO2)c(OC)c1 (centres unmarked) | 14.2
C/C(=N\NC(=O)CCc1c[nH]c2ccccc12)c1cccc([N+](=O)[O-])c1 | 6.1
O=C(Cc1ccc(Cl)cc1)SCc1ccccc1 | 11.3
CNCC[C@H](Oc1cccc2ccccc12)c1cccs1 | -37.8
CCn1cc(C(=O)OCC(=O)N(C)C2CCS(=O)(=O)C2)c(=O)c2ccc(C)nc21 (centres unmarked) | -14
O=C(NCC(=O)N1CCCCC1)c1sc2ccccc2c1Cl | -30.9
O=C(COC(=O)c1ccccc1Sc1ccc(C(F)(F)F)cc1[N+](=O)[O-])NC(=O)NC1CCCC1 | 4.95
CC(=O)/C=C(\C)Nc1ccccc1O | 21.3
O=S(=O)(Oc1ccc(Cl)cc1)c1cccc2cccnc12 | -32.4
